The term % Inhibition denotes the relative decrease from the control value, in per cent.

Screen size: about 150,000 compounds; about 540 (0.36%) showed an effect of 50% or more. The list shows a part of the results.

The experiment relates to Plasmodium falciparum. As to the kind of experiment: Primary screen in NF54 nanoGlo assay, in single point, at 2uM, 72h; a lower Z score goes with more inhibition. It is filed as functional, Erythrocyte. The settings on record: timepoint 72 hour.
On to `CCn1c(COc2ccc3c(c2)CCNC3=O)nc2c(F)cccc21`, for which the “% Inhibition” value came to 5% and the Z score is listed as -0.7.
Consider `CC(C)CS(=O)(=O)CCNC(=O)[C@@H]1Cc2ccccc2CN1C`, for which the “% Inhibition” value was determined as 4% and the Z score is recorded as -0.69.
The matching figures for `C#CCNC(=O)NCc1cc(CC)n[nH]1`: 3% and -0.45.
Turning to `CCOc1ccc(CN2C[C@H]3CN(C4CCCC4)C[C@@]3(C(=O)O)C2)cn1`, the “% Inhibition” value is listed as -7% and the Z score was 1.29.
The matching figures for `CN1C[C@@H]2CC[C@H](CC1=O)N2Cc1cc2cc3c(cc2[nH]c1=O)CCC3`: -15% and 2.77.
For `CCO[C@H]1COCC[C@@H]1NS(=O)(=O)CCc1cccc2ccccc12`, the “% Inhibition” value is on record as 15% and the Z score is -1.94.
Regarding `Cc1ccc(S(=O)(=O)NCc2cncc(-c3ccco3)c2)cc1C`, the “% Inhibition” value came out at 8% and the Z score is recorded as -1.09.
The matching figures for `Cc1cc([C@H](C)NC(=O)NC2CCOCC2)c(C)s1`: -5% and 0.83.
On the same counts, the results for `Cc1nccc(C(=O)N2CC[C@]34C(=O)N(Cc5cn(nn5)CCCOc5cccc(c5)[C@H]23)c2ccccc24)n1` are 6% and -0.76.
For `CC(C)(C)C(=O)Nc1cccc(NC(=O)C(C)(C)C)n1`, the “% Inhibition” value was -18% and the Z score was 2.48.
Turning to `O=C1c2ccccc2C(=O)N1CCC(=O)n1cnc2ccccc21`, the “% Inhibition” value is 33% and the Z score is -3.73.
With `N#Cc1nc(CCC2CCCCC2)oc1NCc1ccccc1`, the “% Inhibition” value was -6% and the Z score was 0.7.
Take `Cc1onc(NC(=O)N2C[C@@H]3OC(=O)N(C4CCN(C(C)C)CC4)[C@@H]3C2)c1C`: the “% Inhibition” value is reported as -6% and the Z score is 1.07.
Turning to `CCc1nncn1CCNC(=O)c1c(F)c(F)cc(F)c1F`, the “% Inhibition” value was -3% and the Z score stood at 0.63.
On the same counts, the results for `Cc1cccc(C)c1NCC(=O)NC[C@H](O)c1ccc(F)cc1` are 6% and -1.11.
On the same counts, the results for `C[C@]1(c2cccc3ccccc23)NC(=O)NC1=O` are 0% and -0.02.
With `Cc1cc(C)c2c(-n3c(C)ccc3C)nn(CC(=O)NCc3ccc4c(c3)OCO4)c2n1`, the “% Inhibition” value was -14% and the Z score amounted to 1.37.
On the same counts, the results for `CC(C)[C@H](CO)CNc1ccc2cc(Cl)ccc2n1` are -1% and 0.09.
For `Cc1cncc(=O)n1C[C@H](O)COC(C)C`, the “% Inhibition” value was -7% and the Z score is listed as 0.84.
As to `CCCN1C(=O)CC[C@@H]2CN(C(=O)c3cccc4ccccc34)CC[C@@H]21`, the “% Inhibition” value was found to be 9% and the Z score is given as -1.54.
On to `O=C(NCc1cc2n(n1)CCCN(Cc1cccc(Cl)c1F)C2)C1CCC1`, for which the “% Inhibition” value was -12% and the Z score is given as 2.22.
Regarding `CC[C@@H](Cn1ccnc1)NS(=O)(=O)N1CCOCC1`, the “% Inhibition” value was -9% and the Z score is given as 1.65.
For the compound `CCN(C(C)=O)c1nc(CN2CCc3sccc3C2)cs1`, the “% Inhibition” value was -13% and the Z score was found to be 1.81.
`CCCC(C(=O)NCC1CCCN1CC)c1ccccn1` (stereo unspecified): the “% Inhibition” value is -9% and the Z score is 1.17.
On the same counts, the results for `CC(C)c1ccc(C2c3[nH]c4ccccc4c3C[C@H]3C(=O)N(c4ccccc4C(=O)N[C@H](C)C(=O)O)C(=O)N23)cc1` (stereo partly specified) are -6% and 1.01.
For `CCCOc1cc(C)ccc1CN[C@H]1CCCS(=O)(=O)C1`, the “% Inhibition” value was 11% and the Z score is given as -2.03.
As for `CCCNC(=O)C1CCN(C(=O)c2cccc3[nH]ncc23)CC1`, the “% Inhibition” value is -1% and the Z score was 0.23.
As to `c1ccc2c(c1)OCCN2Cc1cccc2cccnc12`, the “% Inhibition” value is listed as -5% and the Z score was 0.43.
`C[C@H](Oc1ccccc1)C(=O)N1CCC(CCC(=O)Nc2ccccc2)CC1`: the “% Inhibition” value is recorded as -13% and the Z score is 1.83.
The matching figures for `Cn1c(C2CC2)nc2cc(CNc3ccc(C#N)cn3)ccc21`: -6% and 1.2.
For the compound `Cc1ccc(Cl)cc1NC(=O)Cn1nc2c(Oc3ccccc3C)nccn2c1=O`, the “% Inhibition” value is -11% and the Z score amounted to 1.07.
For `C=CCCC(=O)N(C1CCCCC1)[C@H]1CCS(=O)(=O)C1`, the “% Inhibition” value is -15% and the Z score came out at 2.03.
In the case of `O=C(c1ccco1)N1CCOC2CCCCC21` (stereo unspecified), the “% Inhibition” value is on record as 5% and the Z score is given as -0.62.
In the case of `CCCN(C[C@H]1CCCCO1)C(=O)Nc1ccc(C)cn1`, the “% Inhibition” value is given as -7% and the Z score amounted to 1.02.
On the same counts, the results for `Cc1ccc2c(c1)n(Cc1ccc(Cl)cc1)c(=O)c1nc(C(=O)Nc3c(C)cccc3C)nn12` are 7% and -0.8.
Turning to `CCNC(=O)Nc1ccc2c(c1)CN(S(=O)(=O)c1c(C)noc1C)CCO2`, the “% Inhibition” value is -9% and the Z score came to 1.76.
`CS(=O)(=O)c1ccc(CNC(=O)[C@H]2CC[C@H](C)CC2)s1`: the “% Inhibition” value came out at 29% and the Z score is -3.33.
With `COc1ccc(Cl)cc1NC(=O)N1CCN(c2cccnc2)C(=O)C1`, the “% Inhibition” value was found to be 16% and the Z score was -2.08.
Turning to `Cc1cc(=O)c(C(=O)N(C)Cc2ccco2)c(Cc2cccc(F)c2)n1CCCN1CCOCC1`, the “% Inhibition” value is listed as 2% and the Z score is on record as -0.28.
On to `NC(=O)C[C@H]1CCN(c2nc(-c3ccccn3)nc3c2CCC3)C1`, for which the “% Inhibition” value is recorded as -8% and the Z score was 1.56.
Consider `Cc1ccnc(NC(=O)CC(C)(C)C)c1`, for which the “% Inhibition” value is recorded as -2% and the Z score was 0.27.
`O=S1(=O)CC[C@@]2(CN(c3ncnc4ccsc34)CCO2)C1`: the “% Inhibition” value was found to be 3% and the Z score is -0.62.
With `O=C(NCc1cccnc1)c1cccc(S(=O)(=O)N2CCCCC2)c1`, the “% Inhibition” value is on record as -10% and the Z score came to 1.56.

Values taken from ChEMBL document CHEMBL4888484, “Replenishing the malaria drug discovery pipeline: Screening and hit evaluation of the MMV Hit Generation Library 1 (HGL1) against asexual blood stage Plasmodium falciparum ,using a nano luciferase reporter read-out” (2022).
